This note sets out measurements from ChEMBL document CHEMBL4888484, “Replenishing the malaria drug discovery pipeline: Screening and hit evaluation of the MMV Hit Generation Library 1 (HGL1) against asexual blood stage Plasmodium falciparum ,using a nano luciferase reporter read-out” (2022).

About 540 (0.36%) of roughly 150,000 compounds showed an effect of 50% or more. Some of the results follow.

For the assay, the system named is Plasmodium falciparum. The experiment in a line: Primary screen in NF54 nanoGlo assay, in single point, at 2uM, 72h; a lower Z score goes with more inhibition. The format is functional, Erythrocyte. The following applies: timepoint 72 hour.
One may read the % Inhibition as the drop in the measured response relative to a control, in per cent. For the molecule `N#Cc1cccc(C(=O)N2CCCCCCNC(=O)[C@@H]3CCC[C@@H]32)c1`, the “% Inhibition” value is reported as -10% and the Z score amounted to 1.31.

In the case of `Cc1noc(C)c1NC(=O)C1CCN(C(=O)c2ccco2)CC1`, the “% Inhibition” value was determined as 11% and the Z score was -1.71.

With `O=C(c1ccc(-c2ccccc2)[nH]c1=O)N1CC[C@H](c2ccccc2F)C1`, the “% Inhibition” value worked out at 5% and the Z score was -0.69.

On to `C[C@H](NS(=O)(=O)c1cccc2nsnc12)c1nncn1C`, for which the “% Inhibition” value is reported as -8% and the Z score came to 1.65.

For `Cc1ccccc1NC(=O)[C@H]1C[C@H](F)CN1`, the “% Inhibition” value was -3% and the Z score is 0.5.

As to `Cc1nn(C)cc1C(C)NC(=O)N1Cc2ccccc2N(C)CC1C` (centres undefined), the “% Inhibition” value is listed as -6% and the Z score amounted to 1.16.

On to `CCCn1nnnc1COc1c(C)nn(C)c1C`, for which the “% Inhibition” value was -17% and the Z score amounted to 3.05.

Turning to `Cc1ccc(OCC(=O)N2C[C@H]3CC[C@@H](C2)N(C)C3=O)cc1C`, the “% Inhibition” value is -6% and the Z score was found to be 1.17.

Turning to `CCCCn1ncnc1C[C@H](C)n1ccnc1C`, the “% Inhibition” value is -6% and the Z score came to 0.79.

With `Cc1ccc(S(=O)(=O)N2C[C@@H]3C[C@H](N(C)C)CN3C(=O)[C@@H]2C)cc1`, the “% Inhibition” value is -16% and the Z score was 1.41.

In the case of `CN1CCC(N(Cc2ccncc2)Cc2coc(-c3ccccc3)n2)CC1`, the “% Inhibition” value is reported as -4% and the Z score is reported as 0.55.

In the case of `O=C(Cn1nnc2ccccc2c1=O)N1CCN(C(=O)c2ccco2)CC1`, the “% Inhibition” value is reported as -9% and the Z score was determined as 1.56.

For `CCn1cc(C(=O)N2CCn3c(nn(CC)c3=O)[C@H]2c2ccccc2)cn1`, the “% Inhibition” value is -10% and the Z score is reported as 1.62.

On to `COc1cc(-c2nc(-c3ccc(F)cc3)c(-c3ccc(F)cc3)[nH]2)cc2c1OCO2`, for which the “% Inhibition” value came out at 40% and the Z score was -5.17.

On to `Cc1cc(C)n(CCc2c(-c3ccccc3)ncn2[C@H](C)C(N)=O)n1`, for which the “% Inhibition” value is listed as -7% and the Z score stood at 1.32.

Take `CCCC1CCC(CNc2cnn(C)c2)CC1` (centres undefined): the “% Inhibition” value is given as -4% and the Z score stood at 0.59.

In the case of `COc1cccc(CN2CCC3(CCC(=O)N3Cc3ccc(F)cc3)CC2)n1`, the “% Inhibition” value turned out to be 0% and the Z score is given as -0.01.

On to `N[C@@H]1c2ccccc2C[C@H]1NS(=O)(=O)N1CCCCCC1`, for which the “% Inhibition” value was -9% and the Z score came to 1.72.

With `Cc1cccc(-n2ncnc2[C@@H](C)Cn2nc(C)nc2C)c1`, the “% Inhibition” value came out at 13% and the Z score is reported as -1.86.

For `Cc1ccc2c(c1)C(NC(=O)CCCC(=O)N(C)C)C(C)C2` (centres undefined), the “% Inhibition” value is reported as -13% and the Z score is on record as 1.09.

`Cc1cc(CC(=O)NC(C)(C)CN(C)Cc2ccccc2)n[nH]1`: the “% Inhibition” value is -10% and the Z score came to 1.33.

As to `CC(C)(C)c1ccc(OCC2CCN(c3nnc(C4CC4)s3)CC2)nn1`, the “% Inhibition” value was -11% and the Z score is on record as 1.48.

As to `Nc1nccnc1C(=O)Nc1cn[nH]c1`, the “% Inhibition” value is listed as -11% and the Z score turned out to be 2.04.

As to `Cn1cc(S(=O)(=O)N2CCc3cnccc32)cn1`, the “% Inhibition” value is 1% and the Z score is reported as -0.16.

As for `CCOc1cc(-n2cnnn2)c(OCC)cc1NC(=O)c1cn(-c2ccc(F)cc2)nn1`, the “% Inhibition” value is -14% and the Z score amounted to 1.2.

Take `CCCN(CCC)C(=O)c1cncc(Br)c1`: the “% Inhibition” value is -9% and the Z score is given as 0.93.

`Cc1cc(C(=O)N[C@@H]2C[C@H]3OCC[C@@H]23)cnc1C`: the “% Inhibition” value is -1% and the Z score is recorded as 0.22.

Regarding `Cc1ccc(-c2nc(CNc3ncc(C#N)c(N)n3)[nH]c2-c2ccccn2)cc1`, the “% Inhibition” value turned out to be 1% and the Z score was -0.21.

As to `O=C(c1ccc(Br)cc1-n1cncn1)N1CCNCC1`, the “% Inhibition” value is -9% and the Z score was 1.18.

With `CCOc1ccc(C2=C(CN3CCOCC3)[C@@H](c3ccc(F)cc3)c3ccccc3O2)cc1`, the “% Inhibition” value is -13% and the Z score is 1.62.

As for `CN1C(=O)NC2(CCN(C(=O)C3c4ccccc4Oc4ccccc43)CC2)C1=O`, the “% Inhibition” value was 5% and the Z score is on record as -0.9.

Turning to `CCc1cc2c(NC34CCC3CN(C(=O)c3cnc(C)s3)C4)ncnc2s1` (centres undefined), the “% Inhibition” value stood at 8% and the Z score is -0.85.

Regarding `Cc1ccsc1[C@@H](O)CNC(=O)N1CCNC1=O`, the “% Inhibition” value is reported as -1% and the Z score amounted to 0.19.

Turning to `O=C(COc1ccccc1)Nc1cnc(-n2cccn2)nc1`, the “% Inhibition” value is recorded as -11% and the Z score is 1.65.

Turning to `O=C(NC1CCCCC1)c1ccc2ccccc2c1`, the “% Inhibition” value is -6% and the Z score is listed as 1.27.

In the case of `CC(=O)N(C)C1CCN(Cc2coc3ccccc23)CC1`, the “% Inhibition” value is -11% and the Z score turned out to be 1.93.

For the molecule `Cc1csc(C(=O)NCC[C@H](O)c2cccs2)c1`, the “% Inhibition” value is -13% and the Z score amounted to 1.87.

Consider `CO[C@H]1C[C@H]2CC[C@@H](C1)N2Cc1c[nH]nc1-c1ccc(F)cc1`, for which the “% Inhibition” value came to 13% and the Z score is -1.69.

Regarding `Cc1cc2n(n1)[C@H](C(F)(F)F)CCN2C(=O)c1ncccc1C`, the “% Inhibition” value was -10% and the Z score is given as 1.47.

On to `COc1ccc(-c2nc3cccnc3n2[C@H]2CCN(C(=O)Nc3ccc(C)c(F)c3)C2)cc1`, for which the “% Inhibition” value is on record as -6% and the Z score came out at 0.88.

Regarding `O=S(=O)(NCC[C@H]1CCCO1)c1ccccc1`, the “% Inhibition” value is 1% and the Z score is recorded as -0.24.

In the case of `Cn1nccc1C(=O)N1CCC(Cc2ccc(COc3cccnc3)cc2)CC1`, the “% Inhibition” value is reported as -19% and the Z score is on record as 3.67.
